55 compounds from ChEMBL document CHEMBL4888484, “Replenishing the malaria drug discovery pipeline: Screening and hit evaluation of the MMV Hit Generation Library 1 (HGL1) against asexual blood stage Plasmodium falciparum ,using a nano luciferase reporter read-out” (2022) can be followed below.

Each structure is given as a SMILES string. Screen size: about 150,000 compounds; about 540 (0.36%) showed an effect of 50% or more. Some of the results follow.

In the test the test system is Plasmodium falciparum. Put plainly: Primary screen in NF54 nanoGlo assay, in single point, at 2uM, 72h; a lower Z score goes with more inhibition. It counts as functional, Erythrocyte. As to conditions: timepoint 72 hour.
Consider `CCc1cc(O)nc(CN(C)CCc2ccncc2)n1`, for which the % Inhibition (usually the drop in the measured response relative to a control, in per cent) is -1% and the Z score was 0.1.

For `CC(C)(C)OC(=O)NCC(=O)Nc1ccc(Cl)c(F)c1`, the “% Inhibition” value is on record as -9% and the Z score was found to be 1.01.

`C=CCn1c(C)c(CC(=O)Nc2ccccc2OCC)c(=O)n2nc(-c3ccc(C)cc3)nc12`: the “% Inhibition” value is -1% and the Z score is 0.06.

Take `CC(C)OCc1noc(CN2CC(C)(C)C[C@H]2c2ccccc2)n1`: the “% Inhibition” value is reported as -12% and the Z score stood at 1.64.

Consider `O=C(c1cccc([C@H]2CCCNC2)c1)N1CCc2ccccc2C1`, for which the “% Inhibition” value was -2% and the Z score is 0.33.

Turning to `CN(CCN1CCCC1)S(=O)(=O)CCCNC(=O)OC(C)(C)C`, the “% Inhibition” value is recorded as -6% and the Z score was 0.9.

In the case of `CC(C)OC(=O)C[C@H]1CCCN(S(C)(=O)=O)C1`, the “% Inhibition” value is 3% and the Z score is reported as -0.47.

As for `O=C(O)[C@H](Cc1ccccc1)n1sc2ccccc2c1=O`, the “% Inhibition” value is reported as -15% and the Z score was determined as 2.16.

For the compound `O=C(C[C@@H]1CCN2C[C@@H]1/C=C\COc1ccccc1CNCC2=O)NCc1ccccn1`, the “% Inhibition” value was -9% and the Z score came to 1.38.

Consider `COc1ccc(CNC(=O)CC(C)(C)C)cc1OC`, for which the “% Inhibition” value came out at 2% and the Z score is -0.23.

As for `CC(O)(CN1CCCC(CN2CCOCC2)C1)C(F)(F)F` (stereo not given), the “% Inhibition” value is listed as -1% and the Z score is on record as 0.1.

Consider `Cc1c(C#N)cccc1NC(=O)NC(C)[C@@H]1C[C@H](C(=O)O)C1(C)C` (stereo not given in full), for which the “% Inhibition” value was -7% and the Z score came to 1.03.

For the compound `CS(=O)(=O)NCC(=O)N1CCCC1CC1CC2CCC1C2` (stereo not given), the “% Inhibition” value is -10% and the Z score is 1.95.

Consider `CC(C)CCC(C(=O)NC(C)c1ccccc1)C(=O)NC(C)c1ccccc1` (stereo not given), for which the “% Inhibition” value is recorded as 3% and the Z score is on record as -0.31.

Regarding `C[C@@]12CO[C@@H](COc3ccccc3)O[C@@H]1CC[C@]1(C)C2CC[C@@H](O)[C@H]1CC(=O)N1CCC[C@H]1CO` (stereo not given in full), the “% Inhibition” value worked out at 36% and the Z score was -4.08.

With `COc1ccc(-n2c(=O)[nH]c3cc(-c4nc(-c5ccccc5C)no4)ccc3c2=O)cc1`, the “% Inhibition” value is on record as 7% and the Z score is recorded as -0.77.

`O=C1N(CN2CCN(Cc3ccccc3)CC2)c2ccccc2C12OCCO2`: the “% Inhibition” value is reported as -4% and the Z score is 0.58.

For `Cc1nn(C)c2nc(N3CCC4(CC3)CC(=O)NC(=O)C4)sc12`, the “% Inhibition” value is on record as -10% and the Z score was 1.85.

Consider `Cc1nn(C)cc1C(=O)NCCc1c[nH]c2ccccc12`, for which the “% Inhibition” value was -2% and the Z score was determined as 0.45.

For the compound `CC(C)NC(=O)c1cc(F)cc(Br)c1`, the “% Inhibition” value was -13% and the Z score is 2.05.

In the case of `CCCc1nc(C)cc(N2CCC(CC3CC3)(C(=O)O)CC2)n1`, the “% Inhibition” value is on record as -13% and the Z score is 1.33.

As to `Cn1cc(-c2nc([C@@H]3COCCN3C(=O)c3ccc4c(c3)CCCC4)no2)cn1`, the “% Inhibition” value is listed as -6% and the Z score stood at 0.85.

For the compound `CC(C)(C)C(=O)NCC[C@H](O)c1cccs1`, the “% Inhibition” value was -3% and the Z score was 0.4.

Take `O=C(c1cnc(C2CC2)nc1)N1CCN2CCOc3cccc1c32`: the “% Inhibition” value was 10% and the Z score was -1.33.

For `CCC1=NO[C@@H](CN(C)CCc2scnc2C)C1`, the “% Inhibition” value is reported as -14% and the Z score was 1.76.

Turning to `COc1cccc(CN2C(=O)CC[C@@]2(C)C(=O)NC2CCCCC2)c1`, the “% Inhibition” value was -6% and the Z score turned out to be 0.69.

As to `C[C@@H](C1CC1)N(C)S(=O)(=O)CCN1CCOC1=O`, the “% Inhibition” value was -15% and the Z score was determined as 1.84.

As for `CCc1nc(C#N)c(NC[C@@H](c2ccsc2)N(C)C)o1`, the “% Inhibition” value is given as -5% and the Z score was 0.69.

For `Cn1cnc(C(=O)N2CCCCCCn3c(nnc3-c3ccc(F)cc3)CC2)c1`, the “% Inhibition” value is reported as -8% and the Z score turned out to be 0.99.

For the compound `COc1ccc(CCNC(=O)Cn2nc(C(F)(F)F)n(C)c2=O)cc1OC`, the “% Inhibition” value is recorded as -7% and the Z score was 0.79.

For `CC(=O)c1ccc(CNc2nc(C)nc3c2cnn3C(C)(C)C)nc1C`, the “% Inhibition” value is recorded as -11% and the Z score was found to be 1.56.

In the case of `O=C(NCc1cccnc1Oc1ccc(F)cc1F)[C@@H]1CCCN1`, the “% Inhibition” value stood at 9% and the Z score is listed as -1.56.

As for `CCc1nnc(CNC(=O)Nc2nc(C)cs2)o1`, the “% Inhibition” value is listed as -4% and the Z score is listed as 0.58.

Regarding `CCC[C@H](C)C(=O)NCCNC(=O)c1ccn(C(C)C)n1`, the “% Inhibition” value was -15% and the Z score came to 1.55.

Take `CC(C)Cc1nc2n[nH]c(N)c2c2c1COC(C)(C)C2`: the “% Inhibition” value is recorded as -9% and the Z score is reported as 1.04.

In the case of `Cn1cc(CC(=O)NC2CCCC2)c2cccnc21`, the “% Inhibition” value was -1% and the Z score was found to be 0.17.

Consider `CCCc1nc(-c2ccccc2)cn2c1c(C)c1ccccc12`, for which the “% Inhibition” value is on record as 5% and the Z score is -0.53.

For `Cc1noc(C)c1CC(=O)Nc1cnns1`, the “% Inhibition” value worked out at 25% and the Z score is on record as -2.8.

As to `Cc1ocnc1CNC(=O)c1ccc(O)cc1O`, the “% Inhibition” value is listed as -12% and the Z score is given as 1.39.

Turning to `O=C(Nc1nnc(CCN2CCCCC2)s1)c1ccccc1`, the “% Inhibition” value was found to be 1% and the Z score was -0.07.

With `OCc1cc(-c2ccc(N3CCOCC3)cc2)c(F)cn1`, the “% Inhibition” value is on record as -9% and the Z score came to 0.83.

As for `Cc1ccccc1C(CN1CCOCC1)NC1CCOC(C)(C)C1` (stereo not given), the “% Inhibition” value was found to be 5% and the Z score is reported as -0.71.

In the case of `COc1ncccc1CNC(=O)N(C)C1CCCCCCC1`, the “% Inhibition” value is 3% and the Z score was -0.36.

Take `CCCc1nnc(NC[C@@H](C(C)C)N2CCCC2)o1`: the “% Inhibition” value is reported as 6% and the Z score is listed as -0.84.

With `O=C(c1ccc(F)cc1Cl)N1CCC2(CC1)C[C@@H](O)CCO2`, the “% Inhibition” value is reported as -9% and the Z score is 1.74.

Consider `O=C(NCc1ccc(F)cc1)C(=O)NC[C@H](O)c1cccc2ccccc12`, for which the “% Inhibition” value turned out to be 2% and the Z score was -0.34.

As to `CC(=O)N(c1nc(CNc2ccc(C)cc2C)cs1)C1CC1`, the “% Inhibition” value is -3% and the Z score was 0.44.

Regarding `Cn1cc(N)c(C(=O)N2CCC[C@@H]2CO)n1`, the “% Inhibition” value is -14% and the Z score is reported as 1.85.

With `O=C(c1ccc(Br)o1)N1CCCc2cc(S(=O)(=O)N3CCCC3)ccc21`, the “% Inhibition” value is recorded as -17% and the Z score is 1.59.

As to `Cc1ccc2c(C(=O)O)cc(NC(=O)C3CCC3)cc2n1`, the “% Inhibition” value is on record as -17% and the Z score is listed as 1.46.

Turning to `CC(=O)NC[C@H]1CCN(S(=O)(=O)c2cccc(C#N)c2)C[C@H]1N(C)C`, the “% Inhibition” value is given as -6% and the Z score is given as 0.74.

`CC(C)N1CCC(N[C@@H]2COCC[C@@H]2Oc2ccc(F)cc2)CC1`: the “% Inhibition” value was -11% and the Z score came to 1.41.

`COc1ccc([C@@H]2NC(=O)c3cnn(-c4ccccc4)c3N2)cc1COc1ccccc1C`: the “% Inhibition” value is -32% and the Z score is 3.78.

For `CN1C(=O)c2ccc(NC(=O)c3cncc(Br)c3)cc2C1=O`, the “% Inhibition” value is on record as -10% and the Z score was found to be 1.36.

For `Cc1ccn2c(CN3CCC(NC(=O)CC4CCCC4)CC3)cnc2c1`, the “% Inhibition” value is on record as -9% and the Z score amounted to 1.4.
